Assay [1] concerns the target T1, EXOSC10 K583R mutant (human) (UniProt Q01780).
T1 sequence: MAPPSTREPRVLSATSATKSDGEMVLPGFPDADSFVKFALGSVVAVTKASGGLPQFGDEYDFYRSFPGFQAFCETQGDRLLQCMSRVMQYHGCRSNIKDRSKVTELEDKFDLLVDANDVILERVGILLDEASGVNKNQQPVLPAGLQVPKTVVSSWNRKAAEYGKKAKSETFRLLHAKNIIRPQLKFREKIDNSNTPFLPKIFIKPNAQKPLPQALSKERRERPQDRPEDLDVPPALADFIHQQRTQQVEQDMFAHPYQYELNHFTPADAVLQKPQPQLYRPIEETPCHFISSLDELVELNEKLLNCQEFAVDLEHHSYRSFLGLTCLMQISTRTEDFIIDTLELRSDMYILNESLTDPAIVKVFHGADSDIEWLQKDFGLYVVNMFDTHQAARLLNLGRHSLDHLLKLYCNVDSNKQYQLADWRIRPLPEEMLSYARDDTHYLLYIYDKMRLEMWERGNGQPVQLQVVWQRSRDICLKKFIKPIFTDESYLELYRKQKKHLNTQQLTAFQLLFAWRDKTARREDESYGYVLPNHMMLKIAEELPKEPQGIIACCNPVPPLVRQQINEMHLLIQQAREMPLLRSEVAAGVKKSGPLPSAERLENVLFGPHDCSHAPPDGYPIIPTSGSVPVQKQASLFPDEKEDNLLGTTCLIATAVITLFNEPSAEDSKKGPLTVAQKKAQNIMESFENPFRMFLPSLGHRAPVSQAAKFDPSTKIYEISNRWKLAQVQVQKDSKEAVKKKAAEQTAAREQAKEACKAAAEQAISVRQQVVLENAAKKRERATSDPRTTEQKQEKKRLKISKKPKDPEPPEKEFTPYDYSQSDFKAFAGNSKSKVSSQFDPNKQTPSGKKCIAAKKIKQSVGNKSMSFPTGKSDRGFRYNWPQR
Put plainly: co-IP; WT EXOSC10 against the K583R mutant (Supplementary Figure S5D, E); antibody, tags and cells not given.

Protein sequences, listed by entry. Tags and fused reporters are not part of them.
UniProt Q9NQT5: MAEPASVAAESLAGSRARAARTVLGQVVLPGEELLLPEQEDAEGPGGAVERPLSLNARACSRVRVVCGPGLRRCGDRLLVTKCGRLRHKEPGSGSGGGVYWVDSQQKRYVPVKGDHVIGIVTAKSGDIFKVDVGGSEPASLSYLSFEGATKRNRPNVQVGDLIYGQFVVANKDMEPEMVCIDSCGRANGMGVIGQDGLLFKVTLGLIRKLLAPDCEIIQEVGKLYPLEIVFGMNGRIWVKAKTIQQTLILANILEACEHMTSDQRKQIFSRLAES

For assay [2], the target named is T2, WT EXOSC10 (as compared with the K583R mutant, Supplementary Figure S5D, E) (human) (UniProt Q01780).
T2 sequence: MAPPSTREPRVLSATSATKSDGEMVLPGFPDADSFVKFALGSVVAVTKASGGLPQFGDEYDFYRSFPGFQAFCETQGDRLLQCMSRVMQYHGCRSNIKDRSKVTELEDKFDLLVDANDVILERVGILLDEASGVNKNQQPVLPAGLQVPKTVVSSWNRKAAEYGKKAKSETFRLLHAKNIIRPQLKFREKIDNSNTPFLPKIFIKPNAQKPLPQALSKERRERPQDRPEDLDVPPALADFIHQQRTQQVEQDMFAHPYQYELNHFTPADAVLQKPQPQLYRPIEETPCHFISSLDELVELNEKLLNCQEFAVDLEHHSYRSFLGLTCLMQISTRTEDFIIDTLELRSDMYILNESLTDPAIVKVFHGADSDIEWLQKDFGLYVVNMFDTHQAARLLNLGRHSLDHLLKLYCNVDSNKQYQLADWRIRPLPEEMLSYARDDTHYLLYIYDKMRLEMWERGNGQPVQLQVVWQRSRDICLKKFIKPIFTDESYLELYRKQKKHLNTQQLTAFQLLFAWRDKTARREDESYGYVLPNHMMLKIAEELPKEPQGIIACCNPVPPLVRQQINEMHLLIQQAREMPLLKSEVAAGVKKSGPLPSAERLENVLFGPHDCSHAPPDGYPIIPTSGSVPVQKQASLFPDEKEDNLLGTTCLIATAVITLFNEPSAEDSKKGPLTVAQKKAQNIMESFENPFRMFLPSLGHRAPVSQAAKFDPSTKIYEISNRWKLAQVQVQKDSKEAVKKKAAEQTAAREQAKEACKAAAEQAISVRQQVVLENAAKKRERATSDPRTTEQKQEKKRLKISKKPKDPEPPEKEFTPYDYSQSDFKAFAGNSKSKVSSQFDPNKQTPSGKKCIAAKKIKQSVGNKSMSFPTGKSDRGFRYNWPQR
The assay is described as above.

The target of assay [3] is T3, GST-EXOSC10 fusion protein (human) (UniProt Q01780).
T3 sequence: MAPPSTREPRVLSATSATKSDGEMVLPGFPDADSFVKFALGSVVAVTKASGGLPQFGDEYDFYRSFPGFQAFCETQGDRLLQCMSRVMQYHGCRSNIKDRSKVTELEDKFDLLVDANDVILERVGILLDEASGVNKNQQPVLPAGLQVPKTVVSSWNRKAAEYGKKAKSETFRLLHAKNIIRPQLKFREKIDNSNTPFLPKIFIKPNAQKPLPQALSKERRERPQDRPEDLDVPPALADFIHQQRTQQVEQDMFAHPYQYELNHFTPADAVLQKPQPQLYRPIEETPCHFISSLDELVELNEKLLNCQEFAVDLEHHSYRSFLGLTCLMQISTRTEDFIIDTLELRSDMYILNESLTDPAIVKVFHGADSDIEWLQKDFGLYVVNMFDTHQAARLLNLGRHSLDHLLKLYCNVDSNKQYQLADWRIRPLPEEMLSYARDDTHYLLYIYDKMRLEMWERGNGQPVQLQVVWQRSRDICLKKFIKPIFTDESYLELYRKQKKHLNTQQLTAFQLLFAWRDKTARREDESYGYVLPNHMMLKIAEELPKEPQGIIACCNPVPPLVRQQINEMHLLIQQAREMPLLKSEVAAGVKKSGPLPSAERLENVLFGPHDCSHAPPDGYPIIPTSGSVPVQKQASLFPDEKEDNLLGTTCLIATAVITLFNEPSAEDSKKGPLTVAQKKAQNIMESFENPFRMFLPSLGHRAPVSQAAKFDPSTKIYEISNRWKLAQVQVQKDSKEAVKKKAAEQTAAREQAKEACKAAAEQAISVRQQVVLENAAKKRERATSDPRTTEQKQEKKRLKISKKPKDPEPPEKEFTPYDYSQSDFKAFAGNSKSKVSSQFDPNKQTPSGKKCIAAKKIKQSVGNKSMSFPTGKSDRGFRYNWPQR
Put plainly: pull-down; GST fusion or GST alone (200 ng) on glutathione-Sepharose 4B beads, purified His-tagged protein (200 ng) in solution; 50 mM Tris-HCl 7.5, 5 mM MgCl2, 100 mM NaCl, 10% glycerol, 0.5 mg/ml BSA, 5 mM β-mercaptoethanol; 45 min, room temperature; immunoblot; both purified.

The target of assay [4] is T4, Flag-tagged full-length USP36 (wild type) (human) (UniProt Q9P275).
T4 sequence: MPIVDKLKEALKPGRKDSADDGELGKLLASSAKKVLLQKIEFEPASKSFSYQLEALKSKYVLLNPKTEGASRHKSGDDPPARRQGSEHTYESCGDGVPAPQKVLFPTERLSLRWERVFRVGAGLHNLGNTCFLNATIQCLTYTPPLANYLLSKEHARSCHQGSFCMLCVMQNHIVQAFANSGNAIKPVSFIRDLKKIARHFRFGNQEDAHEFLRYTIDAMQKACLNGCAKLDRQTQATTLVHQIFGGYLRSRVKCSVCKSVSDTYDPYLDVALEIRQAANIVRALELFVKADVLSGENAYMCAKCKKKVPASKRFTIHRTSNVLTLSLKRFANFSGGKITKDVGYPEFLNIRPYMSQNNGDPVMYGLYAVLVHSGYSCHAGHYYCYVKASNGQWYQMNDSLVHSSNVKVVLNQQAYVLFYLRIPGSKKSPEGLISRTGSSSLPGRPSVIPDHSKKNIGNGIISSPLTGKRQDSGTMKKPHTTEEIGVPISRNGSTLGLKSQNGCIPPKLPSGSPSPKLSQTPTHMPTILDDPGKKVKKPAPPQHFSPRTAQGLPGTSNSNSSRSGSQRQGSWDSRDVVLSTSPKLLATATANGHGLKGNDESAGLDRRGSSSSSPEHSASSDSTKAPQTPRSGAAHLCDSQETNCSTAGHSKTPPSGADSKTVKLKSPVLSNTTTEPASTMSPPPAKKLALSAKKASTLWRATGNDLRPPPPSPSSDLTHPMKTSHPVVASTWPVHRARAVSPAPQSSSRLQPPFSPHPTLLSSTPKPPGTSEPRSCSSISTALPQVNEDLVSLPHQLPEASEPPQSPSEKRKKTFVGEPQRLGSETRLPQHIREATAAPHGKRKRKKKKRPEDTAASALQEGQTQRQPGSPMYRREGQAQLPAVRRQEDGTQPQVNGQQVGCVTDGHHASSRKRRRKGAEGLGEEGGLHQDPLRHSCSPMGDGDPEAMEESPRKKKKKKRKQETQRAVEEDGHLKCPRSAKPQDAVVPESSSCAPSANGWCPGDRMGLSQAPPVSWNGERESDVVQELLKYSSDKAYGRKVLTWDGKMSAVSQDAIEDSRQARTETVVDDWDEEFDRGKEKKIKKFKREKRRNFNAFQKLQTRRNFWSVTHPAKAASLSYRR
Put plainly: co-IP; anti-Flag immunoprecipitation from lysates of transfected 293, HeLa or H1299 cells (NP-40 lysis buffer), immunoblot.

No constants are given. Whether binding was seen depends on the method and setting. For some of these results: Binding seen in cells or lysates may run through a third protein. Some entries that bind do so weakly or less than the wild type. For some of these results: Where a sequence is shown, tags or fusion partners need not be part of it.

Regarding “EXOSC3/hRrp40 (from UniProt Q9NQT5 1-275)”, the binding entry in assay [1] and in assay [2] was “binds” each time.

B1: recombinant His-USP36 (enzyme, UniProt Q9P275 1-1123)
chain: MPIVDKLKEALKPGRKDSADDGELGKLLASSAKKVLLQKIEFEPASKSFSYQLEALKSKYVLLNPKTEGASRHKSGDDPPARRQGSEHTYESCGDGVPAPQKVLFPTERLSLRWERVFRVGAGLHNLGNTCFLNATIQCLTYTPPLANYLLSKEHARSCHQGSFCMLCVMQNHIVQAFANSGNAIKPVSFIRDLKKIARHFRFGNQEDAHEFLRYTIDAMQKACLNGCAKLDRQTQATTLVHQIFGGYLRSRVKCSVCKSVSDTYDPYLDVALEIRQAANIVRALELFVKADVLSGENAYMCAKCKKKVPASKRFTIHRTSNVLTLSLKRFANFSGGKITKDVGYPEFLNIRPYMSQNNGDPVMYGLYAVLVHSGYSCHAGHYYCYVKASNGQWYQMNDSLVHSSNVKVVLNQQAYVLFYLRIPGSKKSPEGLISRTGSSSLPGRPSVIPDHSKKNIGNGIISSPLTGKRQDSGTMKKPHTTEEIGVPISRNGSTLGLKSQNGCIPPKLPSGSPSPKLSQTPTHMPTILDDPGKKVKKPAPPQHFSPRTAQGLPGTSNSNSSRSGSQRQGSWDSRDVVLSTSPKLLATATANGHGLKGNDESAGLDRRGSSSSSPEHSASSDSTKAPQTPRSGAAHLCDSQETNCSTAGHSKTPPSGADSKTVKLKSPVLSNTTTEPASTMSPPPAKKLALSAKKASTLWRATGNDLRPPPPSPSSDLTHPMKTSHPVVASTWPVHRARAVSPAPQSSSRLQPPFSPHPTLLSSTPKPPGTSEPRSCSSISTALPQVNEDLVSLPHQLPEASEPPQSPSEKRKKTFVGEPQRLGSETRLPQHIREATAAPHGKRKRKKKKRPEDTAASALQEGQTQRQPGSPMYRREGQAQLPAVRRQEDGTQPQVNGQQVGCVTDGHHASSRKRRRKGAEGLGEEGGLHQDPLRHSCSPMGDGDPEAMEESPRKKKKKKRKQETQRAVEEDGHLKCPRSAKPQDAVVPESSSCAPSANGWCPGDRMGLSQAPPVSWNGERESDVVQELLKYSSDKAYGRKVLTWDGKMSAVSQDAIEDSRQARTETVVDDWDEEFDRGKEKKIKKFKREKRRNFNAFQKLQTRRNFWSVTHPAKAASLSYRR
Consider B1, for which the binding result in assay [3] is given as “binds”.

B2: Dis3 (enzyme, UniProt Q9Y2L1 1-958)
chain: MLKSKTFLKKTRAGGVMKIVREHYLRDDIGCGAPGCAACGGAHEGPALEPQPQDPASSVCPQPHYLLPDTNVLLHQIDVLEDPAIRNVIVLQTVLQEVRNRSAPVYKRIRDVTNNQEKHFYTFTNEHHRETYVEQEQGENANDRNDRAIRVAAKWYNEHLKKMSADNQLQVIFITNDRRNKEKAIEEGIPAFTCEEYVKSLTANPELIDRLACLSEEGNEIESGKIIFSEHLPLSKLQQGIKSGTYLQGTFRASRENYLEATVWIHGDNEENKEIILQGLKHLNRAVHEDIVAVELLPKSQWVAPSSVVLHDEGQNEEDVEKEEETERMLKTAVSEKMLKPTGRVVGIIKRNWRPYCGMLSKSDIKESRRHLFTPADKRIPRIRIETRQASTLEGRRIIVAIDGWPRNSRYPNGHFVRNLGDVGEKETETEVLLLEHDVPHQPFSQAVLSFLPKMPWSITEKDMKNREDLRHLCICSVDPPGCTDIDDALHCRELENGNLEVGVHIADVSHFIRPGNALDQESARRGTTVYLCEKRIDMVPELLSSNLCSLKCDVDRLAFSCIWEMNHNAEILKTKFTKSVINSKASLTYAEAQLRIDSANMNDDITTSLRGLNKLAKILKKRRIEKGALTLSSPEVRFHMDSETHDPIDLQTKELRETNSMVEEFMLLANISVAKKIHEEFSEHALLRKHPAPPPSNYEILVKAARSRNLEIKTDTAKSLAESLDQAESPTFPYLNTLLRILATRCMMQAVYFCSGMDNDFHHYGLASPIYTHFTSPIRRYADVIVHRLLAVAIGADCTYPELTDKHKLADICKNLNFRHKMAQYAQRASVAFHTQLFFKSKGIVSEEAYILFVRKNAIVVLIPKYGLEGTVFFEEKDKPNPQLIYDDEIPSLKIEDTVFHVFDKVKVKIMLDSSNLQHQKIRMSLVEPQIPGISIPTDTSNMDLNGPKKKKMKLGK
For B2, the binding entry in assay [4] is reported as “no binding”.

Values taken from article PMC10164564.
